pIC50: −log10 of the molar value. IC50 is the fitted dose that halves viability relative to control wells, and lower means more sensitive; fits outside the tested doses are given as limits. The AUC spans the tested range (256-fold, ending at the top dose) of the same fit; values near 1 show little effect. For part of these data: A top dose marked as inferred is not printed in the source and was worked back from the curve model. For part of these data: Where an entry number is given, a second screen of the drug exists; the two often differ.
Tests used:
Assay in all cases: Viability of human cancer cell lines after 72 h of drug (GDSC screen)
PF-562271 = compound: CN(c1ncccc1CNc1nc(Nc2ccc3c(c2)CC(=O)N3)ncc1C(F)(F)F)S(C)(=O)=O [PF-562271]; conditions: top dose 2.56 µM; top dose inferred
Experimental: (§1)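 Human cancer cell lines in 384-well plates, medium with 10% serum, drug for 72 h over a 256-fold dose range (nine 2-fold or five 4-fold steps up to the top dose). Adherent lines were fixed and stained with the nucleic acid dye Syto60, suspension lines read with resazurin; signal relative to control wells, capped at 0 and 100%. One two-parameter sigmoid per drug and line, fitted in a mixed model over all curves with the slope shared within a line.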

XMD13-2 = compound: O=C(NC1CC1)c1cccc(-c2ccc3c(NC(=O)C4CC4)n[nH]c3c2)c1 [XMD13-2]; conditions: top dose 10.24 µM; top dose inferred
Experimental: as §1

SNX-2112 = compound: CC1(C)CC(=O)c2c(C(F)(F)F)nn(-c3ccc(C(N)=O)c(N[C@H]4CC[C@H](O)CC4)c3)c2C1 [SNX-2112]; conditions: top dose 2.56 µM
Experimental: as §1

Vinblastine = compound: CC[C@]1(O)C[C@@H]2CN(CCc3c([nH]c4ccccc34)[C@@](C(=O)OC)(c3cc4c(cc3OC)N(C)[C@H]3[C@@](O)(C(=O)OC)[C@H](OC(C)=O)[C@]5(CC)C=CCN6CC[C@]43[C@@H]65)C2)C1 [Vinblastine]; conditions: top dose 0.1 µM; top dose inferred
Experimental: as §1

Afatinib = compound: CN(C)C/C=C/C(=O)Nc1cc2c(Nc3ccc(F)c(Cl)c3)ncnc2cc1O[C@H]1CCOC1 [Afatinib]
Experimental: as §1

[1] = top dose 0.5 µM, screen: GDSC drug entry 1032
[2] = top dose 10 µM, screen: GDSC drug entry 1377, top dose inferred

Row | Cell Line | AUC (PF-562271) | pIC50 (PF-562271) | AUC (XMD13-2) | pIC50 (XMD13-2) | AUC (SNX-2112) | pIC50 (SNX-2112) | AUC (Vinblastine) | pIC50 (Vinblastine) | AUC (Afatinib; [1]) | pIC50 (Afatinib; [1]) | AUC (Afatinib; [2]) | pIC50 (Afatinib; [2])
1 | JHH-7 (liver, adherent) | 0.892 | < 5.59 | 0.908 | < 4.99 | 0.765 | 6.05 | 0.67 | 7.74 | 0.981 | < 6.30 | 0.962 | < 5.00
2 | JHU-011 (head and neck, adherent) | 0.886 | < 5.59 | 0.812 | 5.27 | 0.393 | 7.09 | 0.352 | 8.61 | 0.515 | 7.46 | – | –
3 | JHU-022 (head and neck, adherent) | 0.873 | < 5.59 | 0.968 | < 4.99 | 0.84 | 5.60 | 0.604 | 7.88 | 0.691 | 6.90 | 0.61 | 5.87
4 | JIMT-1 (breast, adherent) | 0.936 | < 5.59 | 0.981 | < 4.99 | 0.846 | 5.68 | 0.424 | 8.42 | 0.921 | < 6.30 | 0.869 | < 5.00
5 | JJN-3 (haematopoietic neoplasm, suspension) | 0.933 | < 5.59 | 0.743 | 5.57 | 0.343 | 7.19 | 0.237 | 8.89 | 0.984 | < 6.30 | 0.977 | < 5.00
6 | JM1 (B-cell lymphoma, suspension) | 0.917 | < 5.59 | 0.836 | 5.26 | 0.28 | 7.37 | 0.599 | 7.95 | 0.989 | < 6.30 | 0.988 | < 5.00
7 | JSC-1 (B-cell lymphoma, suspension) | 0.963 | < 5.59 | 0.707 | 5.61 | 0.239 | 7.55 | 0.552 | 8.06 | 0.987 | < 6.30 | 0.983 | < 5.00
8 | JURL-MK1 (chronic myeloid leukaemia, suspension) | 0.95 | < 5.59 | 0.932 | < 4.99 | 0.283 | 7.41 | 0.441 | 8.36 | 0.97 | < 6.30 | 0.961 | < 5.00
9 | JVM-2 (lymphoid neoplasm, suspension) | 0.961 | < 5.59 | 0.956 | < 4.99 | 0.648 | 6.34 | 0.536 | 8.09 | 0.981 | < 6.30 | 0.927 | < 5.00
10 | JVM-3 (lymphoid neoplasm, suspension) | 0.976 | < 5.59 | 0.981 | < 4.99 | 0.396 | 7.08 | 0.134 | 9.37 | 0.984 | < 6.30 | 0.967 | < 5.00
11 | JiyoyeP-2003 (Burkitt lymphoma, suspension) | 0.956 | < 5.59 | 0.958 | < 4.99 | 0.46 | 6.90 | 0.59 | 7.97 | 0.991 | < 6.30 | 0.979 | < 5.00
12 | K2 (melanoma, adherent) | 0.803 | 5.76 | 0.934 | < 4.99 | 0.906 | < 5.59 | 0.749 | 7.39 | 0.982 | < 6.30 | 0.98 | < 5.00
13 | KARPAS-45 (lymphoblastic leukaemia, suspension) | 0.919 | < 5.59 | 0.814 | 5.35 | 0.18 | 7.66 | 0.317 | 8.67 | 0.98 | < 6.30 | 0.991 | < 5.00
14 | KARPAS-299 (anaplastic large cell lymphoma, suspension) | 0.987 | < 5.59 | 0.971 | < 4.99 | 0.504 | 6.79 | 0.368 | 8.54 | 0.992 | < 6.30 | 0.982 | < 5.00
15 | KARPAS-422 (B-cell lymphoma, suspension) | 0.94 | < 5.59 | 0.915 | < 4.99 | 0.466 | 6.89 | 0.753 | 7.48 | 0.986 | < 6.30 | 0.978 | < 5.00
16 | KARPAS-620 (haematopoietic neoplasm, suspension) | 0.979 | < 5.59 | 0.638 | 5.84 | 0.318 | 7.27 | 0.582 | 8.00 | 0.991 | < 6.30 | 0.984 | < 5.00
17 | KCL-22 (chronic myeloid leukaemia, suspension) | 0.917 | < 5.59 | 0.782 | 5.45 | 0.281 | 7.36 | 0.653 | 7.81 | 0.991 | < 6.30 | 0.978 | < 5.00
18 | KE-37 (lymphoblastic leukaemia, suspension) | 0.916 | 5.66 | 0.866 | 5.24 | 0.171 | 7.63 | 0.448 | 8.33 | 0.992 | < 6.30 | 0.994 | < 5.00

Row | Cell Line | AUC (PF-562271) | pIC50 (PF-562271) | AUC (XMD13-2) | pIC50 (XMD13-2) | AUC (SNX-2112) | pIC50 (SNX-2112) | AUC (Vinblastine) | pIC50 (Vinblastine) | AUC (Afatinib; [1]) | pIC50 (Afatinib; [1]) | AUC (Afatinib; [2]) | pIC50 (Afatinib; [2])
19 | KELLY (neuroblastoma, adherent) | 0.961 | < 5.59 | 0.969 | < 4.99 | 0.823 | 5.88 | 0.687 | 7.71 | 0.957 | < 6.30 | 0.987 | < 5.00
20 | KGN (ovary, adherent) | 0.965 | < 5.59 | 0.88 | < 4.99 | 0.267 | 7.53 | 0.724 | 7.50 | 0.979 | < 6.30 | 0.937 | < 5.00
21 | KINGS-1 (glioma, adherent) | 0.89 | < 5.59 | 0.911 | < 4.99 | 0.416 | 7.06 | 0.542 | 8.07 | 0.933 | < 6.30 | 0.97 | < 5.00
22 | KLE (endometrium, adherent) | 0.94 | < 5.59 | 0.932 | < 4.99 | 0.782 | 5.75 | 0.871 | < 7.00 | 0.894 | < 6.30 | 0.931 | < 5.00
23 | KM12 (large intestine, adherent) | 0.665 | 6.32 | 0.908 | < 4.99 | 0.68 | 6.27 | 0.563 | 8.03 | 0.983 | < 6.30 | 0.895 | < 5.00
24 | KM-H2 (Hodgkin lymphoma, suspension) | 0.982 | < 5.59 | 0.892 | 5.06 | 0.587 | 6.58 | 0.649 | 7.82 | 0.993 | < 6.30 | 0.992 | < 5.00
25 | KMH-2 (thyroid, adherent) | 0.793 | 5.99 | 0.94 | < 4.99 | 0.949 | < 5.59 | 0.333 | 8.64 | 0.989 | < 6.30 | 0.986 | < 5.00
26 | KMOE-2 (acute myeloid leukaemia, suspension) | 0.942 | < 5.59 | 0.95 | < 4.99 | 0.302 | 7.32 | 0.581 | 7.99 | 0.99 | < 6.30 | 0.947 | < 5.00
27 | KMRC-1 (kidney, adherent) | 0.888 | < 5.59 | 0.98 | < 4.99 | 0.838 | 5.72 | 0.879 | < 7.00 | 0.978 | < 6.30 | – | –
28 | KMRC-20 (kidney, adherent) | 0.989 | < 5.59 | 0.986 | < 4.99 | 0.975 | < 5.59 | 0.601 | 7.92 | 0.965 | < 6.30 | 0.983 | < 5.00
29 | KMS-12-BM (myeloma, suspension) | 0.937 | < 5.59 | 0.579 | 6.00 | 0.4 | 7.05 | 0.36 | 8.56 | 0.991 | < 6.30 | – | –
30 | KNS-42 (glioma, adherent) | 0.919 | < 5.59 | 0.964 | < 4.99 | 0.71 | 6.15 | 0.694 | 7.61 | 0.984 | < 6.30 | 0.959 | < 5.00
31 | KNS-81-FD (glioma, adherent) | 0.919 | < 5.59 | 0.919 | < 4.99 | 0.859 | < 5.59 | 0.536 | 8.09 | 0.965 | < 6.30 | 0.97 | < 5.00
32 | KON (head and neck, adherent) | 0.82 | 5.84 | 0.98 | < 4.99 | 0.968 | < 5.59 | 0.487 | 8.24 | 0.925 | < 6.30 | 0.906 | < 5.00
33 | KOPN-8 (B-cell leukaemia, suspension) | 0.907 | < 5.59 | 0.617 | 5.89 | 0.21 | 7.58 | 0.428 | 8.39 | 0.989 | < 6.30 | 0.989 | < 5.00
34 | KP-2 (pancreas, adherent) | 0.936 | < 5.59 | 0.942 | < 4.99 | 0.825 | 5.77 | 0.581 | 7.97 | 0.968 | < 6.30 | 0.895 | < 5.00
35 | KP-3 (pancreas, adherent) | 0.958 | < 5.59 | 0.948 | < 4.99 | 0.663 | 6.30 | 0.738 | 7.46 | 0.972 | < 6.30 | 0.91 | < 5.00

Reference: the supplement of paper PMC4967469
